# Reference: patent US12043670B2, “Anti-BCMA antibody-drug conjugates and methods of use” (Eisai R&D Management Co., Ltd., priority 2020, dated 2024)
# Positions count from the first letter of the chain named.
# B1: AB218: humanized anti-BCMA antibody, heavy chain SEQ ID NO: 104, light chain SEQ ID NO: 105 (antibody)
# heavy: QVQLVQSGAEVKKPGSSVKVSCKASGGTFSNYWIHWVRQAPGQGLEWMGATYRSQSTTYYNQKFKSRVTITADKSTSTAYMELSSLRSEDTAVYYCARGAVYHGYDVIDNWGQGTLVTVSS[omitted - human IgG1 constant region]
# light: DIQMTQSPSSLSASVGDRVTITCRASQSISSYLNWYQQKPGKAPKLLIYATSNLQIGVPSRFSGSGSGTDFTLTISSLQPEDFATYYCQQFRRLPWTFGQGTKLEIKRTVAAPSVFIFPPSDEQLKSGTASVVCLLNNFYPREAKVQWKVDNALQSGNSQESVTEQDSKDSTYSLSSTLTLSKADYEKHKVYACEVTHQGLSSPVTKSFNRGEC
# B2: AB217-ADL1-D2-02 (conjugate)
# heavy: B1 heavy with S30T, Q55H, T57D, N61A, F64Y
# light: B1 light with L33I, I56S, F91Y, L94I
# B3: AB218-ADL1-D2-02 (conjugate)
# heavy: B1 heavy
# light: B1 light
# B4: AB214-ADL1-D2-02 (conjugate)
# heavy: B1 heavy with T57D, F64Y
# light: B1 light with F91Y, L94I
# B5: AB215-ADL1-D2-02 (conjugate)
# heavy: B1 heavy with S30T, A50G, Q55H
# light: B1 light with F91Y, L94I
# Columns and labels:
# [1] = ThermoFluor thermostability (Tm); format: physicochemical; conditions: thermostability of selected clones
# [2] = system: OPM2 multiple myeloma xenograft; experiment: OPM2 xenograft model, unconjugated anti-BCMA antibodies (Studies 1 and 2); format: in vivo, mouse; conditions: OPM2 Study 2, unconjugated antibody
# Procedure: (§1) Methods: Anti-tumor activity was assessed in an OPM2 multiple myeloma xenograft model for a subset of exemplary anti-BCMA antibodies in their naked (unconjugated) form. Four antibodies (AB212, AB214, AB217, and AB218) and a reference antibody (AB200) were tested, split between two studies. OPM2 cells were cultured and expanded for inoculation according to ATCC recommendations. Cells were pelleted and resuspended in a solution of serum-free RPMI-1640 medium (50% v/v) and Matrigel (50% v/v) at a density of 5.0×10^7 cells/mL. Female CB17-Scid mice were inoculated subcutaneously with 100 μL of cell suspension on their right flanks and monitored for tumor growth. When the mean tumor volume reached ˜150 mm^3, mice were randomized into treatment groups and given a single intravenous dose (via tail vein) of 2.0 mg/mL dosing solution at 10 mL/kg for a total dose of 20 mg/kg (day of dosing is denoted by arrows in FIG. 9 and FIG. 10). Mice were weighed and their tumors were measured three times/week to monitor for any changes. Animals with tumors exceeding 2000 mm^3 or 20 mm in any dimension were taken off study and appropriately euthanized according to IACUC protocol. Upon euthanasia, tumor samples and serum were collected and banked for subsequent analyses.
# [3] = SEC analysis - aggregation / percent monomer; format: physicochemical; conditions: absorbance at 280 nm, ADC batch
# Procedure: The peak area absorbance at 280 nm was determined for the high molecular weight and monomeric conjugate components by area under the curve integration.
# [4] = HPLC analysis - free drug; format: physicochemical; conditions: residual unconjugated linker-payload in ADC batch
# Procedure: Conjugate was precipitated with 10 volumes of acetonitrile on ice for 2 hours and spun down. Supernatants containing residual unconjugated payload were then injected onto an Agilent Poroshell 120 SB-C18120A column (4.6×100 mm, 2.7 μm) and eluted with a gradient of 45% B to 70% B over 10 min at RT. Mobile phase A was 100% water, mobile phase B was 100% acetonitrile, and the flow rate was 0.6 mL/min with detection at 252 nm. The amount of residual free drug was quantified via UV detection with comparison to the external standard curve of unconjugated linker-payload.
# [5] = Accelerated stability testing at 37° C. (aggregation, concentration, DAR); format: physicochemical; conditions: 20 mM Histidine/HOAc pH 6.0
# Procedure: (§2) Exemplary anti-BCMA ADCs (˜1 mg each in Eppendorf tubes, ˜4-5 mg/mL) were centrifuged and measured by UV absorption (NanoDrop) at 280 nm to determine protein concentrations. Samples were then incubated in a 37° C. water bath and sampled at four time points, 0 (freshly prepared), 1 day, 2 days, and 4 days. Samples taken at different time points were stored at −80° C. until the last sampling was completed. After thawing at 22° C., samples were analyzed with SEC and hydrophobic interaction chromatography (HIC) for quantification of antibody aggregation and DAR.
# [6] = Freeze-thaw testing (DAR, aggregation, concentration); format: physicochemical; conditions: histidine/pH 6.0 buffer
# Procedure: Exemplary ADC samples (80 μL each, histidine/pH 6.0 buffer) were frozen at −80° C. for 2 hours. The samples were then placed at 22° C. for 30 min to remove visible ice. This completed one cycle. Sampling was performed at the starting point and after 1, 4, and 10 freeze-thaw cycles. 15 μL of each ADC was sampled each time, 7.5 μL of which was used to analyze DAR, aggregation, and concentration. Before analysis, all samples were stored at −80° C.
# [7] = system: OPM2 multiple myeloma xenograft; experiment: OPM2 xenograft model, anti-BCMA ADCs (Studies 1 and 2); format: in vivo, mouse; conditions: single intravenous dose 20 mg/kg; for Tumor growth inhibition (% ± SEM, day 28): OPM2 xenograft Study 2, CB17-Scid mice; for Tumor growth inhibition (% ± SEM, day 30): OPM2 Study 1, ADC
# Procedure: as §1, with “activity of exemplary anti-BCMA ADCs” for “activity”, “model.” for “model for a subset of exemplary anti-BCMA antibodies in their naked (unconjugated) form. Four antibodies (AB212, AB214, AB217, and AB218) and a reference antibody (AB200) were tested, split between two studies.”, “mg/kg.” for “mg/kg (day of dosing is denoted by arrows in FIG. 9 and FIG. 10).”, “measured two to” for “measured”, “times/week.” for “times/week to monitor for any changes.”
# Conjugates of AB213, AB214, and AB215 were assessed in a first experiment (FIG. 11; Table 30); conjugates of AB212, AB216, AB217, and AB218 were assessed in a second experiment (FIG. 12; Table 31).
# In the second experiment, to evaluate the antibody-specific activity of ADCs incorporating exemplary anti-BCMA antibodies, a ‘non-targeting’ ADC was generated by conjugating the ADL1-D2 linker-payload to the anti-HER2 antibody trastuzumab (AB185) at an average DAR of ˜4.0.
# [8] = system: MOLP8 multiple myeloma xenograft; experiment: MOLP8 xenograft model, anti-BCMA ADCs (Study 1); format: in vivo, mouse; conditions: MOLP8 xenograft Study 1, conditions as OPM2 model (single intravenous dose 20 mg/kg)
# Procedure: Methods: Anti-tumor activity of exemplary anti-BCMA ADCs was assessed in an OPM2 multiple myeloma xenograft model. OPM2 cells were cultured and expanded for inoculation according to ATCC recommendations. […] Female CB17-Scid mice were inoculated subcutaneously with 100 μL of cell suspension on their right flanks and monitored for tumor growth. When the mean tumor volume reached ˜150 mm^3, mice were randomized into treatment groups and given a single intravenous dose (via tail vein) of 2.0 mg/mL dosing solution at 10 mL/kg for a total dose of 20 mg/kg. Mice were weighed and their tumors were measured two to three times/week. Animals with tumors exceeding 2000 mm^3 or 20 mm in any dimension were taken off study and appropriately euthanized according to IACUC protocol. Upon euthanasia, tumor samples and serum were collected and banked for subsequent analyses.
# Methods: To further evaluate the anti-tumor activity of exemplary anti-BCMA ADCs in vivo, a screen of the same ADCs was performed in a second multiple myeloma xenograft model, MOLP8. […] All experimental conditions in this study were identical to those used for the OPM2 model with the exception of the model itself and the number of days from tumor inoculation to dose administration (day of dosing is indicated by an arrow in FIG. 15).
# [9] = HIC analysis - DAR of the ADC batch; format: physicochemical; conditions: for Drug-to-antibody ratio (DAR): HIC; for HIC DAR: batch used in cell viability analysis (Table 26)
# Procedure: as §2
# MM1.S cells = experiment: CellTiter-Glo cell viability, MM1.S; format: cell-based, human; conditions: for GI50: MM1.S cells, 6 days, CellTiter-Glo, read-out: GI50 (nM) MM1S.1
# MOLP8 cells = experiment: CellTiter-Glo cell viability, MOLP8; format: cell-based, human; conditions: for GI50: MOLP8 cells, 6 days, CellTiter-Glo, read-out: GI50 (nM) MOLP8.1
Molecule,Percent Monomer [3] [%],Free Drug (%) [4] [%],Aggregation (%) ([5]; 0 d at 37° C.),Concentration ([5]; 0 d at 37° C.) [µg/mL],DAR (HIC) ([5]; 0 d at 37° C.),Aggregation (%) ([5]; 1 d at 37° C.),Concentration ([5]; 1 d at 37° C.) [µg/mL],DAR (HIC) ([5]; 1 d at 37° C.),Aggregation (%) ([5]; 2 d at 37° C.),Concentration ([5]; 2 d at 37° C.) [µg/mL],DAR (HIC) ([5]; 2 d at 37° C.),Aggregation (%) ([5]; 4 d at 37° C.),Concentration ([5]; 4 d at 37° C.) [µg/mL],DAR (HIC) ([5]; 4 d at 37° C.),Aggregation (%) ([6]; After 6 freeze-thaw),Concentration ([6]; After 6 freeze-thaw) [µg/mL],HIC DAR ([6]; After 6 freeze-thaw),"Tumor growth inhibition (% ± SEM, day 21) [8] [%]",Drug-to-antibody ratio (DAR) ([9]; batch used in MOLP8 Study 1),HIC DAR [9],further results
B1,,,,,,,,,,,,,,,,,,,,,"Tm [1]: 86.0 °C; effect on tumor growth ([2]; 20 mg/kg, not statistically significant): modest effect on tumor growth; Tumor growth inhibition (%, day 28) ([2]; single intravenous dose 20 mg/kg, day 28): 4.93%"
B2,97.88,0.5,1.91,4240,3.78,2.20,4180,3.77,2.22,4210,3.71,2.46,4470,3.75,1.91,4240,3.78,62.95 ± 8.99,3.7,3.7,"Aggregation (%) ([6]; Before freeze-thaw): 2.12%; Concentration ([6]; Before freeze-thaw): 4250 µg/mL; HIC DAR ([6]; Before freeze-thaw): 3.70; Tumor growth inhibition (% ± SEM, day 28) [7]: 61.69 ± 10.68%; Drug-to-antibody ratio (DAR) ([9]; batch used in OPM2 Study 2): 3.7"
B3,99.9,0.26,0.39,4860,3.75,0.60,5260,3.71,0.95,5390,3.72,1.71,5090,3.71,0.39,4860,3.75,26.94 ± 25.37,3.77,3.77,"Aggregation (%) ([6]; Before freeze-thaw): 0.10%; Concentration ([6]; Before freeze-thaw): 4680 µg/mL; HIC DAR ([6]; Before freeze-thaw): 3.77; Tumor growth inhibition (% ± SEM, day 28) [7]: 83.00 ± 8.44%; Drug-to-antibody ratio (DAR) ([9]; batch used in OPM2 Study 2): 3.77"
B4,100,0.5,0.58,4580,4.30,0.87,4480,4.30,1.18,4530,4.26,1.01,4700,4.61,,,,49.27 ± 20.79,4.12,4.12,"LD50 (nM) MM1S.1 (MM1.S cells): 373.387 nM; GI50 (MM1.S cells): 0.265 nM; LD50 (nM) MOLP8.1 (MOLP8 cells): 78.966 nM; GI50 (MOLP8 cells): 5.02 nM; Tumor growth inhibition (% ± SEM, day 30) [7]: 82.91 ± 4.07%"
B5,99.13,0.35,1.25,5280,4.80,1.72,4990,4.74,1.59,5210,4.77,2.14,5690,5.01,,,,52.06 ± 24.38,3.96,,"LD50 (nM) MM1S.1 (MM1.S cells): 272.647 nM; GI50 (MM1.S cells): 0.843 nM; LD50 (nM) MOLP8.1 (MOLP8 cells): 111.791 nM; GI50 (MOLP8 cells): 13.6 nM; Tumor growth inhibition (% ± SEM, day 30) [7]: 87.96 ± 3.18%"
